# Reference: PubChem BioAssay AID1346428 (National Center for Advancing Translational Sciences (NCATS), 2018)
# Where “and” joins values, the source holds several entries; their conditions need not be identical. Identical values can stand only once. Hit rate of the full screen: of about 48,000 compounds, about 1,200 (2.5%) were called active. Another 2% or so got no clear call; they are omitted.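 Rule for the calls: active = activation of at least 60% and not above a set upper limit (about 1 call in 100 departs from these limits); inconclusive = activation of 40% to 60%, or above that upper limit; inactive = activation under 40%.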 The list shows a part of the results. More than one record can exist for a structure, and the calls need not agree.
# Target: Probable G-protein coupled receptor 32 (Homo sapiens) (UniProt O75388)
# Assay: qHTS for Agonists of Human Resolvin D1 Receptor DRV1
# Details: CHO-K1 GPR32 beta-arrestin PathHunter luminescence, 90 min; at 76.9 µM; stronger effect = higher value; zero percent set by DMSO-only wells
# Description: Endogenous resolution of inflammation is known to be transduced through various GPCRs and their natural mediators of lipid nature. Resolvin D1 (RvD1) is one of the active players in resolution of acute inflammation through regulation of anti-inflammatory pathways; it is known to enhance phagocytosis of human macrophages, limits neutrophils infiltration, etc. […] The search for GPR32-activating small molecules with anti-inflammatory effects similar to its natural omega-3 derivative ligand in order to use them as research tools for further studies of inflammation and its resolution was the goal of this screening project. For primary screening assay, we used CHO-K1 GPR32 beta-arrestin cell line (DiscoveRx, #93-0321C2A) and the PathHunter(R) beta-Arrestin Assay (DiscoveRx) which measures recruitment of beta-arrestin to the GPR32 and generates chemiluminescent signal. These engineered cells stably transfected with GPR32 co-express GPR32-fused small 42-amino acid fragment of beta-Gal called ProLinktrade mark, and […] -tagged beta-Arrestin fusion protein. When GPR32 is activated by a ligand, it stimulates binding of beta -Arrestin to ProLink-tagged GPR32, and two parts of beta-Gal complement forming a functional enzyme. Upon substrate (PathHunter(R) Detection reagent) addition, beta-Gal hydrolyzes it and generates a chemiluminescent signal.
# The cells were thawed and plated in thawing media containing F-12 HAM (Invitrogen, #11765-054), 10% FBS (Invitrogen, #10082), 1x Glutamine, and 1x Pen/Strep onto the 175-mm flask for 24 hours. Then, thawing media was replaced with Growth media which contains 800microg/mL Geneticin (Invitrogen, #10131) and 300microg/mL Hygromycin B (Invitrogen, #10687) in addition to described above. For the assay, the cells were harvested at ~80% confluent stage with Cell Dissociation buffer (Gibco, #13151), and seeded at 2,500 cells/ 3microL/well in assay media (PathHunter(R) Cell Plating Reagent, DiscoverX, #93-0563R1B) using MultiDrop Combi dispenser (Thermo Scientific, Logan, UT) onto white solid bottom tissue culture-treated 1536-well plates (Greiner # 789173-F) and allowed to attach overnight at 37 degrees C, 95% humidity, 5% CO2, . Next, 23nL/well of compound solutions in DMSO were added with a Pin Tool (Kalypsis, San Diego, CA) to the assay plates. As the basal control (EC0), 23 nL/well of DMSO was used on each plate. The cells were incubated in the presence of compounds or DMSO for 90 minutes at 37 degrees C, 5% CO2. Subsequently, 1.5microL/well of PathHunter(R) Detection Reagent prepared per the manufacturer's instructions was added to the assay plates with BioRAPTR FRDtrade mark dispenser (Beckman Coulter, San Francisco, CA) and incubated for 1 hour at ambient temperature prior to the measurement of the luminescent signal on ViewLux(R) uHTS Microplate Imager (Perkin Elmer, Waltham, MA).
# Chain of UniProt O75388 (O75388 whole entry, looked up): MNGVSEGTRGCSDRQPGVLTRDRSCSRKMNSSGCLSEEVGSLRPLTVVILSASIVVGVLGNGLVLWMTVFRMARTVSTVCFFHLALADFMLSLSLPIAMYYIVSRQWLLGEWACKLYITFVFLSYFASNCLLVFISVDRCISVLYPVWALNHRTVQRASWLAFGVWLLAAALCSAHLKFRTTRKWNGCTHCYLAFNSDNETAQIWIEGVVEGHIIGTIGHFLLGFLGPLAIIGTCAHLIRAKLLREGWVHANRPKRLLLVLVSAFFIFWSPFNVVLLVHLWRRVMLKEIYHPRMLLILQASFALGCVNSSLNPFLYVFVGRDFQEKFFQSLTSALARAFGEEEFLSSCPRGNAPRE
row,SMILES,activation
1,CCCSP(=O)(OCC)SCCC,inactive: 18.9%
2,COC(=O)c1ccccc1NC(=O)c1cccn(Cc2cccc(Cl)c2)c1=O,inactive: -2.83%
3,NCCc1c[nH]c2ccccc12,inactive: 6.46%
4,CCO/N=C(\CC)C1=C(O)CC(c2c(C)cc(C)cc2C)CC1=O (stereo unspecified),inactive: 28.8%
5,CCc1ccc(C2CCNCC2)cc1,inactive: 2.89%
6,CN1C2CCC1CC(OC(c1ccccc1)c1ccccc1N)C2 (stereo unspecified),inactive: 4.53%
7,Cc1cccc(C)c1NC1=NCCCS1,inactive: 3.17% and inactive: 2.45%
8,O=C(Nc1ccccc1)N(Cc1ccc2c(c1)OCO2)C1CCN(Cc2ccccc2)CC1,inactive: -6.13%
9,Nc1ccc(N)cc1,inactive: -65.2%
10,O=C(Nc1ccon1)c1cccn(Cc2cccc([N+](=O)[O-])c2)c1=O,inactive: -18.1%
11,Clc1ccc(N2CC3CCC(C2)N3)nn1,inactive: 3.77%
12,O=C(Nc1ccc2c(c1)OCO2)c1cccn(Cc2ccccc2)c1=O,inactive: 49%
13,CCOC(=O)C1(c2ccccc2)CCN(CCc2ccc(N)cc2)CC1,inactive: 5.2%
14,CCNC(=O)[C@H]1O[C@@H](n2cnc3c(N)ncnc32)[C@H](O)[C@@H]1O,inactive: 3.66%
15,CC(=O)OCC1=C(C(=O)O)N2C(=O)[C@@H](NC(=O)CCC[C@@H](N)C(=O)O)[C@H]2SC1,inactive: 10.3%
16,CN1C(=O)COc2c(C(=O)NC3CN4CCC3CC4)cc(Cl)cc21 (stereo unspecified),inactive: -2.65%
17,O=C(Nc1ccc(F)c(Cl)c1)N(Cc1ccc2c(c1)OCO2)C1CCN(Cc2ccccc2)CC1,inactive: -14.4%
18,Cc1ccc(S(=O)(=O)N[C@@H](CCCCN)C(=O)CCl)cc1,inactive: -17.2% and inactive: -21.8%
19,CCCN1CCC[C@@H](c2cccc(O)c2)C1,inactive: -0.124%
20,O=C1CN=C(c2ccccc2)c2cc([N+](=O)[O-])ccc2N1,inactive: -17.7%
21,CCOc1ccc2nc(NC(=O)c3cccn(Cc4ccc(C)cc4)c3=O)sc2c1,inactive: -3.71%
22,ClCCN1CCCC1,inactive: -6.14%
23,CCCCCCCCCCCCCC(=O)O[C@@H]1[C@@H](C)[C@@]2(O)[C@@H](C=C(CO)C[C@@]3(O)C(=O)C(C)=C[C@@H]23)C2C(C)(C)[C@@]21OC(C)=O (stereo partly specified),inactive: -57.3%
24,N[C@@H](Cc1ccc(Oc2cc(I)c(O)c(I)c2)c(I)c1)C(=O)O,inactive: 5.18%

row,SMILES,activation
1,CC(C)NC(C)C,inactive: 9.56%
2,NC(=O)CN1CCCC1=O,inactive: -24.4% and inactive: -10.9%
3,O=c1[nH]c2ccccc2n1C1CCNCC1,inactive: -10.4%
4,Cc1ccc(OCC(=O)Nc2ccc(Cl)cc2C(=O)c2ccccc2)c(Br)c1,inactive: -11.3%
5,O=P1(NCCCl)OCCCN1CCCl (stereo unspecified),inactive: 6.78%
6,CCc1ccc(-n2nc(C)c3c2NC(=O)CSC3c2ccccc2C)cc1 (stereo unspecified),inactive: 16.5%
7,O=S(=O)(c1ccc(Cl)cc1)c1ccc(Cl)cc1,inactive: 21.6%
8,COC(=O)C(Cl)C(=O)OC,inactive: 3.43%
9,CC(C)c1c(CN(C)C(C)Cc2ccccc2)n(C)n(-c2ccccc2)c1=O (stereo unspecified),inactive: -23.5%
10,COc1ccc(NC(=O)CN2C(=O)C(C)N=C(c3ccccc3)c3ccccc32)cc1OC (stereo unspecified),inactive: -12.2%
11,Cc1ccc(Cn2cccc(C(=O)Nc3nc4ccc(C)cc4s3)c2=O)cc1,inactive: 12.6%
12,N#CCCN,inactive: 5.71%
13,CN1CC[C@@]2(C)c3cc(OC(=O)Nc4ccccc4)ccc3N(C)[C@@H]12,inactive: 31.9%
14,Oc1ccc(Cl)cc1,inactive: 19%
15,Clc1ccc(CCC(Cn2ccnc2)Sc2c(Cl)cccc2Cl)cc1 (stereo unspecified),inactive: -106%
16,CC(C)NP(=O)(NC(C)C)OP(=O)(NC(C)C)NC(C)C,inactive: -2.41%
17,C[N+](C)(C)CCOC(=O)C(O)(c1ccccc1)c1ccccc1,inactive: -0.378%
18,CCC(=O)C(CCN(C)C)(c1ccccc1)c1ccccc1,inactive: -26.8%
19,CC(=O)c1cccc(NC(=O)c2cccn(Cc3cccc(C)c3)c2=O)c1,inactive: 13.6%
20,CCSc1nnc(NC(=O)c2cccn(Cc3ccccc3Cl)c2=O)s1,inactive: 11.8%
21,Cc1c2ccncc2c(C)c2c1[nH]c1ccccc12,inactive: -8%
22,CCOc1ccccc1NC(=O)c1cccn(Cc2ccccc2C)c1=O,inactive: 13.6%
23,N#Cc1cc2c(nc1SCC(=O)Nc1cccc(C(F)(F)F)c1)C1CCN2CC1,active: 63.5%
24,COc1ccc(C(c2c(O)c3ccccc3oc2=O)c2c(C)n(C)n(-c3ccccc3)c2=O)cc1 (stereo unspecified),inactive: 13.3%

row,SMILES,activation
1,O=C1CN2CCOC2(c2ccccc2Cl)c2cc(Cl)ccc2N1 (stereo unspecified),inactive: 0.239%
2,CC(C)(O)[C@@H]1C2OC(=O)[C@@H]1[C@]1(O)C[C@H]3O[C@]34C(=O)O[C@H]2[C@]14C (tested in a mixture with another compound),inactive: -5.41%
3,Cc1ccc(NC(=O)CN2C(=O)CN=C(c3ccccc3)c3ccccc32)cc1Cl,inactive: -26.4%
4,CC(=O)NBr,inactive: 5.14%
5,O=C(O)COc1ccccc1,inactive: -0.19%
6,COc1cccc(-c2nn3c(=O)cc(CN4CCN(C(=O)COc5ccccc5C)CC4)nc3s2)c1,inactive: 22.4%
7,Cc1ccc(OCC(=O)Nc2ccc(Cl)cc2C(=O)c2ccccc2)cc1C,inactive: 3.19%
8,CC1N=C(N)OC1c1ccccc1 (stereo unspecified),inactive: -12.2%
9,Cc1nccc2c1[nH]c1ccccc12,inactive: 14.1%
10,CCCN1CCc2cccc3c2[C@H]1Cc1ccc(O)c(O)c1-3,inactive: 4.39%
11,NC(N)=NOCCC(N)C(=O)O (stereo unspecified),inactive: -4.07%
12,CCCN(CCC)C1CCc2cccc(O)c2C1 (stereo unspecified),inactive: 2.81%
13,Cc1nnc(NC(=O)c2cccn(Cc3cccc(F)c3)c2=O)s1,inactive: 23.9%
14,O=c1oc2ccccc2c(O)c1Cc1c(O)c2ccccc2oc1=O,inactive: -7.9%
15,Cc1ccccc1-n1c(/C=C/c2ccc(N(C)C)cc2)nc2ccccc2c1=O,inactive: -25.1%
16,O=[N+]([O-])c1cc([As](=O)(O)O)ccc1O,inactive: 4.34%
17,O=C(c1ccc2c(c1)N(Cc1ccc(F)cc1)C(=O)c1ccccc1S2)N1CCC2(CC1)OCCO2,inactive: -11.7%
18,c1ccc2c(c1)[I+]c1ccccc1-2,active: 85.7%
19,COc1ccc(OCC(=O)N2CCN(Cc3ccc(SC)cc3)CC2)cc1,inactive: -6.34%
20,COc1ccc2c(c[n+](C)c3c4cc5c(cc4ccc23)OCO5)c1OC,active: 66.5%
21,O=C(O)c1ccc2[nH]cc(CCCCN3CC=C(c4ccccc4)CC3)c2c1,inactive: 12.7%
22,CNc1ccc2oc(C[C@H]3O[C@@]4(CC[C@H]3C)O[C@H]([C@H](C)C(=O)c3ccc[nH]3)[C@H](C)C[C@H]4C)nc2c1C(=O)O,inactive: -37.9%
23,CC(C)c1ccc(OCC(=O)N2CCN(CCc3ccccn3)CC2)cc1,inactive: 17.3%
24,CN1CC[C@@]2(C)c3cc(O)ccc3N(C)C12 (stereo partly specified),inactive: 13.4%

row,SMILES,activation
1,Cc1ccc(OCC(=O)N2CCN(CCc3ccncc3)CC2)cc1,inactive: -14.3%
2,Cc1cccc(Cn2cccc(C(=O)Nc3ccc(F)cc3F)c2=O)c1,inactive: 9.44%
3,COc1ccc(OCC(=O)N2CCN(Cc3cc(=O)n4nc(-c5ccc(OC)cc5)sc4n3)CC2)cc1,inactive: -1.08%
4,Cc1ccc(C(C)C)c(OCC(=O)N2CCN(CCc3ccncc3)CC2)c1,inactive: 11.1%
5,CN(C)C(=O)Oc1cc(OC(=O)N(C)C)cc(C(O)CNC(C)(C)C)c1 (stereo unspecified),inactive: -5.22%
6,CN(C(=O)Cc1ccc(Cl)c(Cl)c1)C(CN1CCCC1)c1cccc(OCC(=O)O)c1 (stereo unspecified),inactive: -12.5%
7,NCCc1ccc(O)cc1,inactive: 6.88% and inactive: 4.41%
8,CNC(C)Cc1ccc2c(c1)OCO2 (stereo unspecified),inactive: -43%
9,N[C@@]1(C(=O)O)CC[C@@H](C(=O)O)C1,inactive: 0.22%
10,O=C(CCCCl)c1ccc(F)cc1,inactive: -5.47%
11,C[N+]1(C)CCN(c2ccccc2)CC1,inactive: -0.125%
12,ClC1=C(Cl)[C@]2(Cl)[C@@H]3[C@@H]4C[C@@H]([C@H]5O[C@@H]45)[C@@H]3[C@@]1(Cl)C2(Cl)Cl,active: 113%
13,CCC1(c2ccc(N)cc2)CCC(=O)NC1=O (stereo unspecified),inactive: -5.48% and inactive: 0.972%
14,C[C@H](Cc1ccc2c(c1)OC(C(=O)O)(C(=O)O)O2)NC[C@H](O)c1cccc(Cl)c1,inactive: 10.9%
15,Cc1ccc(C(=O)Nc2ccccc2)cc1S(=O)(=O)N1CCCC1,inactive: 44%
16,C[C@@H](N)[C@@H](O)c1ccccc1,inactive: -4.4%
17,CCCN1CCC[C@H](c2cccc(O)c2)C1,inactive: 0.951%
18,NC(=O)COc1c(F)cc(SCCNS(=O)(=O)c2ccccc2)cc1F,inactive: -3.23%
19,C#CC(O)(C=CCl)CC (stereo unspecified),inactive: 21.4%
20,C[C@@H]1O[C@@H](O[C@H]2C[C@@H](O)[C@]3(CO)[C@H]4[C@H](O)C[C@]5(C)[C@@H](C6=CC(=O)OC6)CC[C@]5(O)[C@@H]4CC[C@]3(O)C2)[C@H](O)[C@H](O)[C@H]1O,active: 65.2% and inactive: 16.3%
21,COc1cc(CCN)cc(OC)c1OC,inactive: -3.94%
22,Clc1cc(I)cc(Cl)c1NC1=NCCN1,inactive: -8%
23,CCc1ccc(OCC(=O)N2CCN(CCc3ccncc3)CC2)cc1,inactive: -6.58%
24,CC1NCCOC1c1ccccc1 (stereo unspecified),inactive: -12.9%
